Results as given in PubChem BioAssay AID2147 (National Center for Advancing Translational Sciences (NCATS), 2009).
The campaign covered roughly 230,000 compounds. About 3,600 (1.6%) were called active. Inconclusive means that the source gave no clear call. Such entries were picked first, then a sample of the others. Calls come from the whole dose curve; as a rule, active = well fitted inhibition curve with a large enough effect (not every such curve was filed as active); inconclusive = small, poorly fitted or top-dose-only effect, or another doubt; inactive = no such curve, though single readings can be large or run the other way. Potencies beside an inconclusive call are fits to weak or partial responses and may not hold up.

molecular target: Lysine-specific demethylase 4E (Homo sapiens) (UniProt B2RXH2); test: qHTS Assay for Inhibitors of Human Jumonji Domain Containing 2E (JMJD2E); conditions: JMJD2E catalytic domain, FDH-coupled NADH fluorescence (FDH is formaldehyde dehydrogenase); series mostly up to 57.1 µM; activity change, negative = inhibition: at the top concentration
UniProt B2RXH2, sequence (B2RXH2 whole entry, looked up, the tested form may be a part): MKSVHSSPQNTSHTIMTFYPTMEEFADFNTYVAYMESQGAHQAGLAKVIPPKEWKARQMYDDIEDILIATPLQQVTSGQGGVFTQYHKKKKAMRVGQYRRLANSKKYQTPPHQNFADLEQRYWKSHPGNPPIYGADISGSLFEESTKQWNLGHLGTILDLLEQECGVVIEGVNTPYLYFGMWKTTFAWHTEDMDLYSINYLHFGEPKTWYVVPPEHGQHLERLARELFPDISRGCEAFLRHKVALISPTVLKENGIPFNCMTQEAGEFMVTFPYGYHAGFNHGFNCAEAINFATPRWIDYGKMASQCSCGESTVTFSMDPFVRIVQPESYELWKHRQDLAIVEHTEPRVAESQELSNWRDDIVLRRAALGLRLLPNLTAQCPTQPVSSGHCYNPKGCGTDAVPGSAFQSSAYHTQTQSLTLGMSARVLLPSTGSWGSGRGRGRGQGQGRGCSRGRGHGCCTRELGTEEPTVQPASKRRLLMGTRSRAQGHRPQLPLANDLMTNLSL
Note: nearly all actives have a fitted effect of over 50% in size.
Potency is the fitted concentration of half-maximal effect; tags give direction and shape of the fitted curve.
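Throughout, for activity change, negative = inhibition: 0% = wells with enzyme and -100% = buffer wells without enzyme.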

| SMILES | activity change, negative = inhibition | Potency |
| --- | --- | --- |
| CCN(CC)C(=O)COc1ccc(/C(C)=N/Nc2ncc(Cl)cc2Cl)cc1 | inactive: -4.05% | – |
| Cc1ccc(-n2cc(CNCCCn3cccn3)c(-c3cccc(C)c3)n2)cc1 | inactive: -1.91% | – |
| COc1ccc(/C=C/C(=O)c2ccc(O)cc2)cc1COc1ccc(F)cc1 | – | inconclusive: 22.4 µM [inhibitor, partial curve] |
| COc1cccc2c(=O)n(CC(=O)N3CCN(c4ccccc4)CC3)ccc12 | – | inconclusive: 39.8 µM [inhibitor, single point] |
| CCCc1cnc(N2CCN(S(C)(=O)=O)CC2)nc1 | – | inconclusive: 22.4 µM [inhibitor, single point] |
| Cn1cc2ccc(N)cc2n1 | – | inconclusive: 35.5 µM [inhibitor, partial curve] |
| COc1ccc(-c2nc(CS(=O)CC(=O)NCC3CCCO3)c(C)o2)cc1 (stereo not given) | – | inconclusive: 39.8 µM [inhibitor, single point] |
| Cc1cc(-c2cccc(Br)c2)c(C#N)c(N)n1 | – | inconclusive: 31.6 µM [inhibitor, partial curve] |
| Cc1cccc(C(=O)Nc2ccc(O)c3c(=O)cc(-c4ccccc4Cl)oc23)c1 | inactive: 21.4% | – |
| CCOC(=O)CNC(=O)C1CCCc2c1[nH]c1ccc(Cl)cc21 (stereo not given) | – | inconclusive: 1.12 µM [inhibitor, full curve, poor fit] |
| FC(F)(F)c1cccc(-c2nnc3ccc(C(F)(F)F)cn23)c1 | – | inconclusive: 25.1 µM [inhibitor, single point] |
| Cc1cccn2cc(-c3ccccc3)nc12 | – | inconclusive: 28.2 µM [inhibitor, partial curve] |
| COc1ccc2nc(C(F)(F)C(F)(F)F)c(C#N)c(N)c2c1 | – | inconclusive: 28.2 µM [inhibitor, partial curve] |
| O=C(c1cccs1)n1nc(-c2ccc(Cl)cc2)nc1NCc1ccco1 | – | inconclusive: 39.8 µM [inhibitor, single point] |
| CN/C=C1\C(=O)C(C)(C)Oc2ccc3ccc(=O)oc3c21 | inactive: -6.57% | – |
| COc1ccccc1NC(=O)C1=C(C)NC(SCC(=O)c2ccccc2)=C(C#N)C1c1ccco1 (stereo not given) | inactive: -23.5% | – |
| CCC(c1nnnn1Cc1ccco1)N(CCc1ccccc1)Cc1cc2cccc(C)c2[nH]c1=O (stereo not given) | – | inconclusive: 25.1 µM [inhibitor, single point] |
| COc1ccc(S(=O)(=O)N(CC(=O)Nc2ccc(S(=O)(=O)N3CCOCC3)cc2)Cc2ccc(F)cc2)cc1 | inactive: 5.02% | – |
| c1cncc(-c2nc3ccccc3[nH]2)c1 | – | inconclusive: 28.2 µM [inhibitor, single point] |
| CCOC(=O)C1=NOC2COC3(CCN(c4ncccn4)CC3)OCC12 (stereo not given) | – | inconclusive: 14.1 µM [inhibitor, partial curve] |
| Cn1c(=O)c2nc(NCc3ccccc3)cnc2n(C)c1=O | – | inconclusive: 25.1 µM [inhibitor, partial curve] |
| O=C(Cn1nc(-c2ccccc2)ccc1=O)NCC1COCCO1 (stereo not given) | – | inconclusive: 35.5 µM [inhibitor, single point] |
| CCOC(=O)C1CCN(C(=O)CSc2ccc(Br)cc2)CC1 | inactive: 2.24% | – |
| COc1cccc(Nc2nc(NCC3CCCO3)c3ccccc3n2)c1 (stereo not given) | – | inconclusive: 8.91 µM [inhibitor, partial curve] |

| SMILES | activity change, negative = inhibition | Potency |
| --- | --- | --- |
| O=C(NC1CC1)c1ccc2c(c1)C1C3CCC(C3)C1C(c1ccccc1)N2 (stereo not given) | – | inconclusive: 25.1 µM [inhibitor, single point] |
| CCCOC(=O)c1ccc(Oc2cn[nH]c2-c2ccc(O)cc2O)cc1 | – | inconclusive: 39.8 µM [inhibitor, single point] |
| CN(Cc1ccccc1)Cc1c(F)cccc1F | – | inconclusive: 39.8 µM [inhibitor, single point] |
| COc1ccc([N+](=O)[O-])cc1NC(=O)C(C)OC(=O)c1cccnc1 (stereo not given) | inactive: -5.28% | – |
| COCCNC(=O)c1c(N)n(/N=C/c2ccc(F)cc2)c2nc3ccccc3nc12 | – | inconclusive: 2.24 µM [inhibitor, single point] |
| CCOC(=O)Cc1c(C)nc2c(-c3ccc(Cl)cc3)c[nH]n2c1=O | – | inconclusive: 28.2 µM [inhibitor, partial curve] |
| CCCOc1ccc(/C=N/Nc2ccc(C(=O)O)cc2)c(OCCC)c1 | – | inconclusive: 25.1 µM [inhibitor, partial curve] |
| CC1CCCN(CCC(=O)c2ccc(Br)cc2)C1 (stereo not given) | inactive: 0.393% | – |
| CCN(CC)C(=O)CSc1nnc(-c2cc(-c3ccc(Cl)cc3)nc3ccccc23)o1 | – | inconclusive: 2.24 µM [inhibitor, full curve] |
| Cc1cccc(NC(=S)NNC(=O)c2nn(C)cc2Cl)c1 | – | active: 31.6 µM |
| Cc1cc(=O)n2[nH]c(-c3ccccc3Cl)cc2n1 | – | inconclusive: 35.5 µM [inhibitor, single point] |
| CC(C)c1cccc(C(C)C)c1NC(=O)COC(=O)[C@H](C)NC(N)=O | inactive: -4.17% | – |
| COc1ccc(Oc2ccc(N/C=C/C(=O)C(C)(C)C)cc2)cc1 | – | inconclusive: 39.8 µM [inhibitor, single point] |
| COc1ccc(CCN(Cc2cc3cc(C)cc(C)c3nc2Cl)C(=O)C2CC2)cc1 | – | inconclusive: 25.1 µM [inhibitor, single point] |
| Cc1ccc(C(=O)OCC(=O)Nc2ccc(S(N)(=O)=O)cc2)c(O)c1 | – | inconclusive: 35.5 µM [inhibitor, single point] |
| CCOC(=O)c1sc(C)c(C(=O)NCC(C)(C)CN(C)C)c1N | – | inconclusive: 20 µM [inhibitor, partial curve] |
| Cn1c(=O)c2c(nc(CN3CCc4ccccc4C3)n2CCCO)n(C)c1=O | – | inconclusive: 39.8 µM [inhibitor, single point] |
| COc1cc(/C=N/Nc2ccc3ccccc3c2)ccc1OC(=O)c1ccco1 | – | active: 20 µM |
| O=C(CSc1ncn[nH]1)CSc1ncn[nH]1 | – | active: 3.55 µM |
| Cc1ccc(S(=O)(=O)N2CCN(CC(=O)N/N=C\c3ccc(Cl)c([N+](=O)[O-])c3)CC2)cc1 | inactive: -12.1% | – |
| CC(C)C[C@@H](CC(=O)N[C@@H](CCC(=O)O)CC(=O)O)NC(=O)[C@@H]1CCCC[C@H]1NC(=O)C[C@@H](NC(=O)C[C@H](Cc1ccccc1)NC(=O)[C@@H]1CNCC[C@H]1N)C(C)C | inactive: -5.58% | – |
| C=CCOC(=O)NC(CC(=Nc1ccc(OC)cc1)C(=O)OC)c1ccccc1 (stereo not given) | inactive: 7.9% | – |
| COc1ccc(-c2cc3ccccc3n2CC(O)CN2CCN(CCO)CC2)cc1 (stereo not given) | – | inconclusive: 35.5 µM [inhibitor, partial curve] |
| O=C(c1cccs1)N(CCO)Cc1cc2cc3c(cc2[nH]c1=O)OCCO3 | – | inconclusive: 25.1 µM [inhibitor, partial curve] |

| SMILES | activity change, negative = inhibition | Potency |
| --- | --- | --- |
| O=C1N=C(C=c2ccc(=Cc3[nH]c(=O)[nH]c3O)cc2)C(=O)N1 | – | inconclusive: 25.1 µM [inhibitor, partial curve] |
| Cn1c(O)c(N=Nc2ccc(F)cc2)c2ccccc21 | inactive: -25.3% | – |
| O=C(N/N=C\c1ccccc1O)c1ccccc1O | – | active: 5.01 µM |
| COc1ccc(CCn2c(-c3ccncc3)n[nH]c2=S)cc1OC | – | inconclusive: 35.5 µM [inhibitor, single point] |
| O=C(Nc1ccc(S(=O)(=O)Nc2nccs2)cc1)C1=NN(c2ccccc2)C(=O)CC1 | – | inconclusive: 22.4 µM [inhibitor, single point] |
| c1ccc(CCSc2ncnc3nc[nH]c23)cc1 | inactive: 6.51% | – |
| CC(OC(=O)c1ccco1)C(=O)NC1CCCCC1 (stereo not given) | inactive: -2.87% | – |
| Cc1cc(C)n(-c2nc(NCCN(C)C)c3c4c(sc3n2)CCCC4)n1 | – | inconclusive: 35.5 µM [inhibitor, single point] |
| Cc1ccnc(NC(c2ccccn2)c2c(C)[nH]c3ccccc23)c1 (stereo not given) | – | inconclusive: 28.2 µM [inhibitor, single point] |
| O=C(COC(=O)c1cc(-c2ccco2)nc2ccccc12)NCc1ccc2c(c1)OCO2 | – | inconclusive: 22.4 µM [inhibitor, partial curve] |
| CC(C)=CCCC(C)C1CC[C@@]2(C)C3=C(CC[C@@]12C)C1(C)CCC(O)C(C)(C)C1CC3 (stereo not given in full) | inactive: -9.02% | – |
| CCOC(=O)Cc1c(C)c2c(O)cc(O)cc2oc1=O | – | inconclusive: 31.6 µM [inhibitor, partial curve] |
| CCOC(=O)C1=C(CSc2nc3c(cc2C#N)CN(C)CC3)OC(N)=C(C#N)C1c1ccccc1 (stereo not given) | – | inconclusive: 28.2 µM [inhibitor, partial curve] |
| Cc1cc(-c2ccc(Cl)cc2Cl)c(C#N)c(=O)[nH]1 | – | inconclusive: 22.4 µM [inhibitor, partial curve] |
| c1ccc(Cc2cc[n+](Cc3ccccn3)cc2)cc1 | inactive: 2.45% | – |
| COc1cccc(/C=N\NC(=O)C2=NNC(=O)C2C)c1O (stereo not given) | – | active: 7.08 µM |
| CN1CCc2c(n(CC(O)CN3C(=O)c4ccccc4S3(=O)=O)c3ccccc23)C1=O (stereo not given) | inactive: -4.93% | – |
| COCCN1C(=O)C(=O)/C(=C(/O)c2ccc(C)cc2)C1c1ccccn1 (stereo not given) | – | inconclusive: 39.8 µM [inhibitor, partial curve, poor fit] |
| Cc1cc(NC(=O)CSc2nc3c(c(-c4cccnc4)c2C#N)CCC3)no1 | – | inconclusive: 35.5 µM [inhibitor, single point] |
| NC(=O)C1=C[C@H](c2ccc(C(F)(F)F)cc2)C[C@H](OCc2ccc(CO)cc2)O1 | – | inconclusive: 15.8 µM [inhibitor, single point] |
| Cc1nc(NCc2ccccc2)c2nc(-c3ccccc3)n(CCCN(C)C)c2n1 | – | inconclusive: 25.1 µM [inhibitor, partial curve] |
| CSC(=S)N/N=C/c1ccc(N(C)C)cc1 | – | inconclusive: 31.6 µM [inhibitor, single point] |
